Some of the results follow.
Each compound was assayed on S. aureus RN4220 (assay: growth inhibition call (relative growth <= 0.2)). Settings: 50 µM.

Growth inhibition call, inactive:
COc1ccc(CNC(=O)C[C@H]2C[C@@H]3c4cc(NC(=O)NC5CCCC5)ccc4O[C@@H]3[C@@H](CO)O2)cc1
C[C@H](CO)N1C[C@H](C)[C@@H](CN(C)S(=O)(=O)c2ccccc2C#N)OCc2cnnn2CCCC1=O
C[C@@H]1CCCCO[C@H](CN(C)Cc2ccc(C(=O)O)cc2)[C@@H](C)CN([C@H](C)CO)C(=O)c2cc(NS(=O)(=O)c3ccc(F)cc3)ccc2O1
COc1ccc(S(=O)(=O)Nc2cccc3c2O[C@H](CN(C)Cc2ccc(Cl)c(Cl)c2)[C@@H](C)CN([C@H](C)CO)C3=O)cc1
C[C@@H]1CN([C@H](C)CO)C(=O)c2cc(NC(=O)Nc3ccc4c(c3)OCO4)ccc2O[C@@H](C)CCCCO[C@H]1CN(C)Cc1ccccc1
O=C(C[C@H]1CC[C@@H](NC(=O)CN2CCOCC2)[C@@H](CO)O1)NCCc1ccccc1
C[C@@H]1CN([C@@H](C)CO)C(=O)c2cc(C3=CCCCC3)cnc2O[C@@H]1CN(C)S(=O)(=O)c1cn(C)cn1
C[C@H]1CN([C@@H](C)CO)C(=O)c2cccc(NC(=O)c3ccc(-c4nccs4)cc3)c2O[C@H]1CN(C)Cc1ccc(C(F)(F)F)cc1
O=C(O)C=Cc1ccc(O)c(O)c1
C[C@H](CO)N1C[C@H](C)[C@H](CN(C)S(=O)(=O)c2ccccc2)Oc2ccc(NC(=O)C3CC3)cc2CC1=O
C[C@H](CO)N1C[C@H](C)[C@@H](CN(C)Cc2ccc(Cl)c(Cl)c2)Oc2ccc(NC(=O)Cn3cnnn3)cc2C1=O
COCCNC(=O)C[C@@H]1CC[C@@H]2[C@H](COC[C@H](O)CN2C(=O)Nc2ccc3c(c2)OCO3)O1
O=C(Cn1cc(COc2ccc3ccccc3c2)nn1)NS(=O)(=O)c1ccccc1OC(F)(F)F
Cc1noc(C)c1NC(=O)Nc1ccc2c(c1)C(=O)N([C@@H](C)CO)C[C@H](C)[C@H](CN(C)C(=O)Nc1ccc(F)cc1)OCCCC[C@H](C)O2
C[C@H](CO)N1C[C@H](C)[C@H](CN(C)C(=O)CCC(F)(F)F)OCCCC[C@H](C)Oc2ccc(NS(=O)(=O)c3ccccc3)cc2C1=O
C[C@@H]1CN([C@H](C)CO)C(=O)Cc2cc(NC(=O)CCC(F)(F)F)ccc2O[C@@H]1CN(C)C(=O)Nc1cccc2ccccc12
C[C@@H]1CN([C@H](C)CO)C(=O)Cc2cc(NC(=O)C3CC3)ccc2O[C@@H]1CN(C)C(=O)NC1CCCCC1
C[C@@H]1CCCCO[C@@H](CN(C)Cc2ccccc2)[C@@H](C)CN([C@@H](C)CO)C(=O)c2cc(NC(=O)CCC(F)(F)F)ccc2O1
COc1ccc(S(=O)(=O)N(C)C[C@@H]2Oc3c(NS(=O)(=O)c4ccc(F)cc4)cccc3C(=O)N([C@@H](C)CO)C[C@@H]2C)cc1
Cc1noc(C)c1S(=O)(=O)N(C)C[C@@H]1Oc2ccc(NC(=O)NC(C)C)cc2CC(=O)N([C@@H](C)CO)C[C@@H]1C
C[C@@H]1CN([C@@H](C)CO)C(=O)Cc2cc(NC(=O)C3CCCCC3)ccc2O[C@@H]1CN(C)S(=O)(=O)c1cn(C)cn1
Cc1noc(C)c1NC(=O)Nc1cccc2c1O[C@@H](CN(C)Cc1ccc(Oc3ccccc3)cc1)[C@@H](C)CN([C@@H](C)CO)C2=O
Cc1noc(C)c1NC(=O)N(C)C[C@@H]1Oc2c(NC(=O)c3ccncc3)cccc2C(=O)N([C@H](C)CO)C[C@H]1C
Cc1noc(C)c1NC(=O)N(C)C[C@H]1Oc2ncc(C#CCC(C)C)cc2C(=O)N([C@@H](C)CO)C[C@@H]1C
C[C@H]1CN([C@@H](C)CO)S(=O)(=O)c2ccc(-c3ccc(C(=O)N(C)C)cc3)cc2O[C@@H]1CN(C)C(=O)C1CCC1
C[C@H](CO)N1C[C@H](C)[C@@H](CN(C)CC2CC2)OCCCC[C@H](C)Oc2ccc(NC(=O)Nc3ccc(C(F)(F)F)cc3)cc2C1=O
Cl.NC(COP(=O)(O)O)C(=O)O (centres undefined)
O=C(C[C@H]1C[C@H]2c3cc(NC(=O)Nc4ccc(C(F)(F)F)cc4)ccc3O[C@H]2[C@@H](CO)O1)NC1CCCCC1
O=C(C[C@H]1CC[C@@H]2[C@H](COC[C@H](O)CN2S(=O)(=O)c2ccc(F)cc2)O1)N[C@@H]1CCN(Cc2ccccc2)C1
